# Results reported in PubChem BioAssay AID686979 (National Center for Advancing Translational Sciences (NCATS), 2013).
# The whole screen tested about 420,000 compounds, of which about 50,000 (12%) were called active. Inconclusive results, whose numbers are uncertain, are shown with a selection of clear calls. Calls follow the shape of the dose curve; as a rule, active = well fitted inhibition curve with a large enough effect; inconclusive = small, poorly fitted or top-dose-only effect; inactive = flat fitted curve, though single readings scatter. Potencies of inconclusive entries are left out as doubtful fits.
# Test: qHTS for Inhibitors of human tyrosyl-DNA phosphodiesterase 1 (TDP1): qHTS in cells in presence of CPT; also: nearly all actives have a fitted effect of over 55% in size
# Settings: chicken DT40 Tdp1-/-;hTDP1 cells + 20 nM CPT, ATP luminescence, 48 h; activity change, negative = growth inhibition: at 46.2 µM (top of the series) unless noted
# Method in brief: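 Chicken DT40 Tdp1-/- cells stably complemented with human TDP1 were seeded at 400 cells/well in medium containing 20 nM camptothecin, exposed to pin-transferred compounds, and grown at 37 °C for at least 48 hr. Viability was read as ATP luminescence.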
# % is scaled to controls: 0 for no effect and ±100 for the full control effect; potency is read from the fitted curve at half-maximal effect; tags tell the direction and shape of the fitted curve.
Compound,"activity change, negative = growth inhibition",Potency
CCOc1ccc(NC(=O)Cn2ccn3nc(-c4ccc(OC)c(OC)c4)cc3c2=O)cc1,inactive: -19.2%,–
O=C(NCC(=O)N1CCN(C(=O)c2ccco2)CC1)c1ccc(Br)cc1,inactive: 1.24%,–
CC12CCC(C(=O)OC3CCCCC3)(OC1=O)C2(C)C (stereo unspecified),inactive: -2.71%,–
COc1cccc(-c2cc3nc(NCc4ccccc4F)n(C)c(=O)c3s2)c1,–,active: 23.1 µM
COCCN(Cc1ccc(C)cc1)C(=O)[C@H]1O[C@@H](n2ccc(=O)[nH]c2=O)[C@H](O)[C@@H]1O,inactive: -26.7%,–
COc1ccc(-c2cc(C3CC3)nc3sc(C#N)c(N)c23)cc1,–,"inconclusive [inhibitor, single point]"
CCOC(=O)C(C)Sc1nc2c([nH]c3ccccc32)c(=O)n1C (stereo unspecified),inconclusive: -34.1% [inhibitor],–
Cc1ccsc1CN(C(=O)c1ccc(OCC(C)C)cc1)C1CCS(=O)(=O)C1 (stereo unspecified),–,"inconclusive [inhibitor, single point]"
O=C(OCc1ccccc1)N1C=CC2CC1c1c(Cl)cccc12 (stereo unspecified),–,"inconclusive [inhibitor, single point]"
CCc1ccc(NC(=O)c2ccc(F)c(S(=O)(=O)N3CCN(c4ccc(OC)cc4)CC3)c2)cc1,–,"inconclusive [inhibitor, full curve]"
CS(=O)(=O)c1ccccc1C(=O)Nc1cccc2ncccc12,inactive: -6.12%,–
O=C(c1ccc(C(F)(F)F)cc1)C1CCCN(C(=O)c2csnn2)C1 (stereo unspecified),–,"inconclusive [inhibitor, single point]"
CCC(NC(=O)c1cccc(Cn2cc([N+](=O)[O-])cn2)c1)c1ccc(C(C)C)cc1 (stereo unspecified),inactive: -18.6%,–
O=[N+]([O-])c1c(NCCCO)cc(SCc2ccco2)c2nonc12,–,active: 14.6 µM
COc1cccc(N2CCN(C(=O)c3ccc(CS(=O)Cc4ccccc4Cl)o3)CC2)c1 (stereo unspecified),–,"inconclusive [inhibitor, partial curve, poor fit]"
Cc1ccc(CNc2ccc(Cl)cc2[N+](=O)[O-])cc1,inactive: -22.3%,–
CCN(CC)c1nc2ccccc2nc1-n1nc(C)cc1C,–,"inconclusive [inhibitor, partial curve]"
O=C(Cc1cccs1)N1CCN=C1SCc1cccc(F)c1,inactive: -19.4%,–
CC(C)C[C@H]1CNC(=S)N1CC1CCCN1C[C@H](CC(C)C)N1C[C@H](Cc2ccccc2)N(CC2CCCCCC2)C1=S (stereo partly specified),–,"inconclusive [inhibitor, single point]"
O=C(NCc1cccnc1)c1nc(-c2ccc(C(F)(F)F)cc2)no1,–,active: 14.6 µM
COc1ccc(-c2nc(NC(=O)c3[nH]c(C)c(C(C)=O)c3C)sc2C)cc1,–,"inconclusive [inhibitor, single point]"
CSc1ccccc1C(=O)NC1CCCN(c2ccc(C(F)(F)F)cn2)C1 (stereo unspecified),–,"inconclusive [inhibitor, single point]"
CCOC(=O)c1cccc(NS(=O)(=O)c2cc(-c3cnc(C4CC4)o3)ccc2C)c1,–,active: 2.59 µM

Compound,"activity change, negative = growth inhibition",Potency
O=S(=O)(O)c1ccc2c(c1)C(C(Cl)(Cl)Cl)OC(C(Cl)(Cl)Cl)O2 (stereo unspecified),inactive: 15%,–
CC1(C)OC2CC3C4CCC5=CC(=O)CCC5(C)C4(F)C(O)CC3(C)C2(C(=O)CO)O1 (stereo unspecified),–,"inconclusive [inhibitor, single point]"
NC(=S)NN=Cc1nccc2c(N)cccc12,–,active: 1.84 µM
Cc1cccc(/C=N/n2c(-c3cc(-c4ccccc4)n[nH]3)n[nH]c2=S)c1,–,active: 16.4 µM
CC(=O)N[C@@H](C)C(=O)NCC1Cc2cccc(-c3ccccc3C(F)(F)F)c2O1 (stereo partly specified),inactive: 8.95%,–
CCOC(=O)c1c(S(=O)(=O)N2CCCC(C(=O)Nc3ccc(C)cn3)C2)c(C)n(C)c1C (stereo unspecified),–,"inconclusive [inhibitor, partial curve]"
CCC(c1nnnn1Cc1cccs1)N1CCN(c2nc3ccccc3s2)CC1 (stereo unspecified),–,"inconclusive [inhibitor, single point]"
COC(=O)[C@]1(Cc2ccccc2)N[C@H](CN(C)S(=O)(=O)c2ccc(C(F)(F)F)cc2)[C@@H]2C(=O)N(Cc3ccccc3)C(=O)[C@@H]21,–,"inconclusive [inhibitor, single point]"
CCOC(=O)CN1C(=N)N(c2nc(NC(C)C)nc(NC(C)C)n2)CC1=O,inactive: -10.6%,–
CCOc1ccc(NC(=O)Nc2cccnc2)cc1,–,"inconclusive [inhibitor, partial curve]"
N#Cc1c(-c2cccnc2)cc(-c2ccccc2)nc1N,inactive: -1.42%,–
O=C(COc1ccccc1)NCC(=O)Nc1cccc2ccccc12,inactive: 2.81%,–
OC(COCc1ccc(Cl)cc1)CN1CCN(CC(O)COCc2ccc(Cl)cc2)CC1 (stereo unspecified),–,active: 18.4 µM
COc1ccc(-c2nn(-c3ccccc3)cc2C(=O)n2nnc3ccccc32)cc1,–,active: 20.6 µM
CC(=O)c1ccc(N2CCN(C(=O)CCCCn3c(=O)[nH]c4ccsc4c3=O)CC2)cc1,–,active: 13 µM
Cc1cccc(NC(=O)CSc2nc3ccccc3nc2N2CCOCC2)c1C,–,"inconclusive [inhibitor, single point]"
O=C(N[C@@H](Cc1ccccc1)C(=O)OCc1ccccc1)c1nc[nH]c1C(=O)NCc1ccccc1,–,active: 18.4 µM
CN1CCN(C(=O)c2ccc3c(=O)n(Cc4ccc(Cl)cc4)c(=S)[nH]c3c2)CC1,–,active: 20.6 µM
CCCCCCn1c(Br)nc2c1c(=O)n(C)c(=O)n2C,–,"inconclusive [inhibitor, single point]"
O=C1C2C3C=CC(CC3)C2C(=O)N1c1ccccc1[N+](=O)[O-] (stereo unspecified),inactive: -8.96%,–
CCc1nc2ccc(C(=O)NCc3cccs3)cn2c1N(C)Cc1nccs1,–,"inconclusive [inhibitor, single point]"
O=C1c2ccccc2C(Nc2ccc3c(c2)OCO3)N1Cc1ccc2c(c1)OCO2 (stereo unspecified),–,"inconclusive [inhibitor, single point]"
Cc1ccc(/C=C2\SC(N3CCCCC3)=NC2=O)cc1,–,"inconclusive [inhibitor, single point]"
